Out of some 1,200 compounds screened, about 55 (5%) were called active. Another 15% or so got no clear call; they are omitted. Calls follow the shape of the dose curve; as a rule, active = well fitted inhibition curve with a large enough effect; inconclusive = small, poorly fitted or top-dose-only effect; inactive = no such curve, though single readings can be large or run the other way. The list shows a part of the results.
Assay: qHTS Assay to Find Inhibitors of Chronic Active B-Cell Receptor Signaling: Hit Validation in Renilla Reporter Assay; also: nearly all actives have a fitted effect of over 70% in size
Conditions: TMD8 IkB-Renilla luciferase reporter, NF-kB signaling; series mostly up to 57.5 µM; activity change, negative = inhibition: at the top concentration
How it was run: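 Orthogonal secondary test of primary-screen hits in ABC-DLBCL cells carrying constitutively expressed IkB-Photinus and Renilla luciferase reporters, read by Dual-Glo luminescence; luciferases differ from the primary assay's click beetle enzymes, to exclude assay-specific artifacts.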
% is scaled to controls: 0 for no effect and ±100 for the full control effect; potency is read from the fitted curve at half-maximal effect.

Activity change, negative = inhibition, inactive:
COc1cc(C2C(C#N)=C(N)Oc3cc(N(C)C)ccc32)cc2c1OCO2 (configuration not stated) -10.1%
CC(C)(C)C(=O)NC(=S)NNC(=O)c1ccc(-c2ccccc2)cc1 -27.5%
NNC(=O)c1[nH]c2ccc(Br)cc2c1-c1ccccc1 -7.29%
COc1cc(OC)c2c(-c3cccc(-c4ccc(OC)c(F)c4)c3)cc(=O)oc2c1 -15.1%
N#C/C(=C\c1ccc(Cl)cc1)c1nc2ccccc2o1 7.06%
COc1ccccc1NS(=O)(=O)c1ccc(-c2cnc(C3CC3)o2)cc1 19.8%
CCc1ccc(/C=N/NC(=O)c2cc(C3CC3)nc3ccccc23)s1 -10.8%
CCOC(=O)c1c(C)c(C(=O)OCC)n(C)c1C -16.5%
N#CCN1C(=S)N=C(Nc2cccc(Cl)c2)C12CCCCC2 0.0979%
COc1ccc(-c2cc(C(=O)NN)[nH]n2)cc1OC -1.88%
COc1cc2c(cc1O)CC[C@@H]1[C@@H]2CC[C@]2(C)[C@@H](O)CC[C@@H]12 -4.12%
COc1ccc(C(=O)N/N=C/c2ccccc2OC(=O)c2ccccc2)cc1 -12.9%
CCCCN1C(=O)N(C)C2C1N(C)C(=O)N2CCCC (configuration not stated) 1.12%
COc1ccc(-c2nn(C)c(=O)c3ccccc23)cc1CNS(C)(=O)=O -3.29%
CCCC1=Nc2cc(C(=O)NC3CCCCC3)ccc2Sc2ccc(C)cc21 -4.04%
COc1ccc(C(=O)N(C)Cc2cnn(Cc3ccccc3)c2)cc1S(=O)(=O)N1CCOCC1 -0.539%
COc1cc2c(cc1OC)C(C)N(C(=O)c1cc(C)on1)CC2 (configuration not stated) -13.9%
Nc1ncnc2c1ncn2[C@@H]1O[C@H](COP(=O)(O)O)[C@@H](O)[C@H]1O 7.78%
COc1ccc(/C=N/n2c(=S)n(C)c3ccccc32)cc1OC -5.63%
COc1ccc(C2=Nn3c(nnc3-c3ccccn3)SC2)cc1OC -2.2%
C/C(=N\NC(=S)NCCc1ccccc1)c1cccc(Br)c1 14.1%
COC1=CC(=O)CC(C)C12Oc1c(Cl)c(OC)cc(OC)c1C2=O (configuration not stated) -2.07%
COc1cc(C)nc(NCc2ccccc2)n1 10.7%
CC1=Nc2ccccc2/C1=C\c1sc(Nc2ccc(C)cc2)nc1O -18.9%
Cc1cccc(NC(=O)c2ccc(C(=O)Nc3cccc(C)c3)nc2)c1 -7.98%
Cc1ccc(NS(=O)(=O)c2cc(-c3n[nH]c(=O)c4ccccc34)ccc2C)cc1 -28.3%
Cc1cccc(C(=O)Oc2ccc(/C=N/O)cc2)c1 0.412%
CN1c2ccccc2Sc2cc(N)ccc21 -7.71%
COc1ccc(-c2c(C)nn3c(N)c(C#N)cnc23)cc1OC 1.53%
O=C(CSc1cccc[n+]1[O-])c1ccc(Cl)cc1 1.38%
CCn1c(O)c(N=NC(=S)NCC2CCCO2)c2ccccc21 (configuration not stated) -24.2%
COc1ccc(-c2c(-c3cc(OC)c(OC)c(OC)c3)noc2C)cn1 -20.2%
C(=N\Nc1nc2ccccc2[nH]1)/C1CCCCC1 -13.5%
CCC(=O)[C@@]1(C)[C@H](C)C[C@H]2[C@@H]3CCC4=CC(=O)C=C[C@]4(C)[C@H]3[C@@H](O)C[C@@]21C 3.4%
CC1(C)N=c2ccc([N+](=O)[O-])c(N)c2=[N+]1[O-] -20.4%
CCCCNC(=S)N=Nc1c(O)[nH]c2ccccc12 16.5%
CCOC(=O)C1C(C(=O)OC)=C(c2ccc(OC)cc2)c2ccccc2N1S(=O)(=O)C(F)(F)F (configuration not stated) -0.898%
CC[C@]1(O)CC2CN(CCc3c([nH]c4ccccc34)[C@@](C(=O)OC)(c3cc4c(cc3OC)N(C=O)[C@H]3[C@@](O)(C(=O)OC)[C@H](OC(C)=O)[C@]5(CC)C=CCN6CC[C@]43[C@@H]65)C2)C1 (some centres not stated) -23.7%
COc1cc(/C=C/c2ccc3cccc(O)c3n2)cc(Cl)c1OC -4.98%
Nc1ccc(C(=O)Nc2ccccc2N)cc1 87.1%
CCCCn1c(=O)c(F)cn(Cc2ccc(OC)c([N+](=O)[O-])c2)c1=O 2.27%
COc1ccc(COC(=O)C2=C(C)NC(=O)NC2c2cc(Br)c(O)c(OC)c2)cc1 (configuration not stated) -19.4%
COc1cc(/C=C2\N=C(c3ccccc3)NNC2=O)cc(OC)c1OC 24.1%
CC[C@]12c3[nH]c4cc(CCC(=O)N(C)C)ccc4c3CCN1C(=O)[C@@H](CC(=O)NC(C)(C)C)C[C@@H]2C(=O)N1CCN(C(=O)c2ccco2)CC1 -0.0894%
CC1=CC(C)(C)N(S(=O)(=O)c2ccc(C)cc2)c2ccc(C)cc21 -19%
Cc1cc(C)cc(NS(=O)(=O)c2ccc(-c3cnc(C4CC4)o3)cc2)c1 25.8%
S=C(NCCN1CCOCC1)N/N=C/c1cccs1 1.18%
COC(=O)Nc1nc(-c2ccccc2)c(C(=O)c2ccc(Cl)cc2)s1 9.55%
COC(=O)c1ccc(CNC(=O)Cn2cnc3c(NCc4ccccc4)ncnc32)cc1 5.07%

Potency, active:
CN(C)c1nc(=Nc2cccc(Cl)c2)ss1 10.7 µM
Cc1cc(Cl)n2c(nc3cc(F)c(F)cc32)c1C#N 1.69 µM
O=C(CCCN1C(=O)/C(=C/c2ccccc2OC(F)F)SC1=S)Nc1cccnc1 30.1 µM

Reference: PubChem BioAssay AID651568 (National Center for Advancing Translational Sciences (NCATS), 2012)
